The values below come from ChEMBL document CHEMBL1157539, “Thousands of chemical starting points for antimalarial lead identification” (Nature, 2010).

Molecules are shown by their SMILES. Over roughly 13,000 compounds, “IFI” has its median near 4; the highest 2% begin near 17. The list shows a part of the results.

This assay can be described thus: GSK_TCMDC: Inhibition Frequency Index (IFI). The number of non-kinase HTS assays where a compound showed > 50 % inhibition, expressed as a percentage of the number of such assays in which the compound was tested (-0 is zero). Format: functional.
`O=C(NCC1CCC(C(=O)NCc2cccc(C(F)(F)F)c2)CC1)c1ccc(O)c(-c2ccc(Cl)c(Cl)c2)c1` (stereo not given) came in with an IFI of 1.48%.
In turn, `O=C(NCCCN1CCCCC1)c1ccc(Nc2nccc(Nc3ccc(Oc4ccccc4)cc3)n2)cc1` yielded an IFI of 7.3%.
The figure for `FC(F)(F)c1ccc2[nH]c(-c3cccc(-c4ccc(CNCc5ccccc5)cc4)c3)nc2c1` is 13.5%; for `Cn1cc(C2CCN(CCCCNC(=O)c3sc(-c4ccc(C(F)(F)F)cc4)nc3CO)CC2)c2ccccc21` it is 7.96%.
As for `Oc1c(CN2CCCC(C(F)(F)F)C2)cc(Cl)c2ccccc12` (stereo not given), the IFI turned out to be 6.38%.
`Nc1nc(N)c2c(ccc3c2ccn3Cc2cc3c(cc2Cl)OCO3)n1` had an IFI of 5.38%.
The figure for `Cc1cc(N[C@@H](Cc2ccccc2)C(=O)NCCc2ccccc2)nc(NCCOc2ccccc2)n1` is 7.5%; for `COc1ccc(Nc2nc(N/N=C/c3ccc(O)cc3)nc(Nc3ccc([N+](=O)[O-])cc3)n2)cc1` it is 5.52%; for `CC(=O)Nc1ccc(CN(Cc2ccc(C)cc2)Cc2cccc(Oc3ccccc3)c2)cc1` it is 0.71%.
The figure for `CC(C)c1ccc(NC(=O)c2ccc(CN3CCCN(CC4CCCCC4)CC3)cc2)cc1` is 15%.
The figure for `COCCN1CCC(NCC(C)(C)c2nc(-c3ccc(Cl)c(O)c3)c(-c3ccncc3)[nH]2)CC1` is 0%; for `Cc1cccc2nc(-c3cccc(-c4ccc(NC(=O)c5c[nH]cn5)cc4)c3)[nH]c12` it is 1.87%.
For `COc1ccc2nccc(N(C)CC3(O)CCN(CCc4ccc5c(c4)NC(=O)CS5)CC3)c2n1`, the IFI was found to be 5.67%.
`O=C(Cc1cn(-c2ccccc2)nc1-c1ccc(Cl)cc1)Nc1nccs1` came in with an IFI of 2.56%.
The figure for `Cc1cccc2nc(-c3ccc(-c4cccc(CN5CCN(CC6CCCN(C)C6)CC5)c4)s3)[nH]c12` (stereo not given) is 6.94%.
The figure for `CCOc1ccc2[nH]c(C)cc(=NN=Cc3cccc(C)n3)c2c1` is 1.46%; for `Cc1ccc(Nc2nc(N/N=C/c3cccc([N+](=O)[O-])c3)nc(Nc3ccccc3)n2)c(C)c1` it is 2.4%; for `N#Cc1ccc2c(c1)CCN(CCC1CCC(NC(=O)/C=C/c3cnc4ccccc4c3)CC1)CC2` (stereo not given) it is 6.57%.
The figure for `Cc1cccc(-c2cc3cc(Nc4ccnc5cc(-c6nccs6)ccc45)ccc3[nH]2)c1` is 3.03%; for `COc1cc2c(cc1N(C(C)C)S(=O)(=O)c1sc3ccc(Cl)cc3c1C)CCNCC2` it is 15.8%.
Regarding `CCCc1cc(Cc2cnc(N)nc2N)cc(CC)c1O`, the IFI was -0%.
The figure for `COc1cc2nc(Nc3ccc4c(c3)OCCO4)nc(N)c2cc1OC` is 1.67%; for `COC(=O)c1cccc(CNCc2ccc(-c3ccc(-c4nc5cc(C(F)(F)F)ccc5[nH]4)cc3)cc2)c1` it is 9.62%.
The figure for `COc1ccc(CNC2CCN(C)CC2)cc1-c1ccc(S(=O)(=O)NCc2ccccc2)s1` is 12.8%; for `O=C(NCc1cccc(F)c1)Nc1cccc(-c2ccc(-c3nc4cc(C(F)(F)F)ccc4[nH]3)cc2)c1` it is 6.93%; for `COc1cc(CNC[C@@H](O)[C@H](Cc2ccccc2)NC(=O)c2cc(OC(C)C)cc(N3CCCS3(=O)=O)c2)cc(OC)c1` it is 2.16%.
The figure for `CCOC(=O)c1sc(C(C)Nc2ccccc2)nc1-c1ccccc1` (stereo not given) is 3.45%; for `N#Cc1ccc(-c2nc(CO)c(C(=O)NCCCCN3CCC(c4ccc5c(c4OCC(N)=O)CCCC5)CC3)s2)cc1` it is -0%; for `O=S(=O)(Nc1ccc(-c2ccc(CN3CCCC3)cc2)cc1)c1cccc2cccnc12` it is 3.33%.
The compound `CCC(C)c1ccc(O)c(NC(=O)c2cncc(Br)c2)c1` (stereo not given) gave an IFI of 2.05%.
On to `O=C(/C=C/c1ccc(C(F)(F)F)cc1)NCCCCCN1CCCN(C(=O)Nc2ccc(Cl)c(C(F)(F)F)c2)CC1`, for which the IFI worked out at 18.8%.
In turn, `COc1ccc2c(=NN=Cc3ccccc3F)cc(C)[nH]c2c1` displayed an IFI of 1.48%.
`O=C(/C=C/c1ccc(Cl)c(Cl)c1)NCCCCCN1CCCN(C(=O)Nc2ccc(Cl)cc2)CC1` showed an IFI of 4.03%.
The figure for `COc1cccc(CC(=O)N2CCC(n3c(C)nc4ccc(F)cc43)CC2)c1` is -0%; for `CCC(CC)N1CCN(CC(=O)Nc2ccc([N+](=O)[O-])cc2C(=O)Nc2cccc(OC)c2)CC1` it is 1.43%; for `O=C(NCc1ccc(Cl)c(Cl)c1)c1ccc(C2CCN(Cc3ccc4[nH]cnc4c3)CC2)cc1` it is 2%.
The figure for `COc1cncc(/C=C/c2cncc(C(=O)NCCc3ccc(Cl)cc3Cl)c2)c1` is 1.43%; for `COc1ccc(CNCc2ccccc2)cc1-c1ccc(S(=O)(=O)NCCN2CCCC2)c(C)c1` it is 10.7%.
The figure for `CC(C)(C)c1ccc(NC(=O)c2cccc(CN3CCCN(CC4CCCCC4)CC3)c2)cc1` is 9.35%; for `O=C(Nc1cccc(CN2CCN(Cc3ccc(O)cc3)CC2)c1)c1cc2ccccc2o1` it is 0%.
For the compound `O=C(Nc1cccc(-c2csc(-c3nc4ccccc4[nH]3)c2)c1)c1cccnc1`, the IFI turned out to be 1.87%.
`COc1ccc(-c2cccc(NC(=O)c3cccc(Cl)c3)c2)cc1CNC(C)C` came in with an IFI of 5.33%.
The figure for `N#CN1CC[C@@H](OC(=O)N[C@@H]2C[C@H]2c2ccccc2)C1` is -0%; for `Cc1ccc(-n2c(Cc3cccc4ccccc34)nnc2SCCC#N)c(C)c1` it is 1.53%; for `O=C(/C=C/c1ccc(Cl)c(Cl)c1)NCCCCCN1CCC(c2cn[nH]c2-c2ccccc2)CC1` it is 4.41%.
`Nc1nc(N)c2c(Sc3ccccc3)cccc2n1`: the IFI was 4.62%.
The figure for `COc1cccc(NC(=O)Nc2ccc(C)c(-c3ccc(C(=O)Nc4ccncc4)cc3)c2)c1` is 26.8%.
The figure for `O=C(Nc1cccc(-c2nn3ncccc3c2-c2ccnc(Nc3cccc(-c4cnco4)c3)n2)c1)c1c(F)cccc1F` is 5.04%; for `CCCc1ccc(S(=O)(=O)NC2CCN(c3ccnc(Nc4ccc(F)cc4)n3)C2)cc1` (stereo not given) it is 16.2%; for `COc1ccc2c(c1)Nc1ccc(Cl)cc1C2N` (stereo not given) it is 7.81%.
The figure for `NC(=O)Nc1ccc2c(Nc3ccc(OCc4ccccc4)cc3)ncnc2c1` is -0%.
As to `CN1CCN(c2ccnc3ccc(NC(=O)Nc4cccc5c(Br)cccc45)cc23)CC1`, the IFI was found to be 5.88%.
As to `OCC1CCN(Cc2ccc(-c3ccc(-c4nc5ccccc5[nH]4)cc3)cc2)CC1`, the IFI stood at 2.82%.
`CC(C(=O)OCCOCn1cnc2c(=O)[nH]c(N)nc21)N(C)C(=O)OC(C)(C)C` (stereo not given) returned an IFI of 0%.
In turn, `CC(C)(C)c1ccc(CN2CCC(NC(=O)c3cc(-c4cccc(C(F)(F)F)c4)cs3)C2)cc1` (stereo not given) showed an IFI of 7.14%.
`Cn1c(Nc2nnc(C3CC3)s2)nc2cc(Nc3ccnc(Nc4cccc(CS(C)(=O)=O)c4)n3)ccc21` showed an IFI of 2.83%.
The figure for `Cc1ccc(NC(=O)Cc2noc(CC3CCCN3C(=O)N[C@@H](C)c3ccccc3)n2)cc1` (stereo not given in full) is -0%; for `Nc1c(Cl)cc(C(O)CNCCCCCCOCCc2ccc(O)cc2)cc1Cl` (stereo not given) it is 5.08%; for `O=C(NC(Nc1ccc([N+](=O)[O-])cc1)C(Cl)(Cl)Cl)c1cccc(Cl)c1` (stereo not given) it is 13.9%.
The figure for `Cc1ccc(C(=O)Nc2cccc(CN3CCCN(Cc4ccc(O)cc4)CC3)c2)s1` is 0.69%.
The figure for `N=C(N)NC(=O)Nc1ccc(Cl)c(Cl)c1` is 1.52%; for `Cc1cccc2nc(-c3cccc(-c4cccc(NC(=O)Nc5ccccc5)c4)c3)[nH]c12` it is 2.02%; for `Nc1nc(N)c2c(ccc3ccccc32)n1` it is 4.26%.
Take `CC(=O)Nc1ccc(COc2ccc(Nc3ccnc4cc(-c5ccccn5)ccc34)cc2)cc1`: the IFI was 9.03%.
The figure for `NC(=O)c1cccc(C(=O)Nc2cccc(-c3cccc(-c4nc5ccccc5[nH]4)c3)c2)c1` is 3.81%; for `COc1ccc(C(=O)Nc2ccc(-c3nc4cc(C)ccc4[nH]3)cc2)cc1OC` it is 5.93%; for `CCNc1cc(C(=O)N[C@@H](Cc2ccccc2)[C@H](O)CNCC(C)C)cc(N2CCCC2=O)c1` it is -0%.
The compound `COc1cccc(-c2ccc3c(-c4cccc(S(C)(=O)=O)c4)cnc(N)c3c2)c1` returned an IFI of 11.5%.
The figure for `Cc1cc(N[C@@H](CC(C)C)C(=O)Nc2ccccc2)nc(NCc2ccccc2C)n1` is 9.52%.
The figure for `CCCCCCCN1CC[C@@H](CCCc2ccnc3ccc(OCCN4CCOCC4)cc23)[C@@H](CC)C1` is 8.76%.
`CCCCCc1cnc2nc(N)nc(N)c2c1C`: the IFI is 1.42%.
The figure for `O=C(N[C@@H](Cc1ccccc1)[C@H](O)CNC1CCc2ccccc2C1)c1cc(C2CCCC2)cc(N2CCCC2=O)c1` (stereo not given in full) is 10.3%; for `CC(=O)Nc1cc(C(=O)Nc2cccc(-c3cccc(-c4nc5cccc(C)c5[nH]4)c3)c2)ccc1C` it is 5.88%; for `O=S(=O)(Nc1cc2c(cc1OCc1ccccc1)CCN(C1CCC1)CC2)c1ccc(-c2ccc(Cl)cc2)cc1` it is 5.84%.
On to `Cc1nc2nc(N)nc(N)c2c(C)c1Cc1cccc(C#N)c1`, for which the IFI was determined as 0.72%.
Compound `COc1ccc(OCCCON2C(=N)N=C(N)NC2(C)C)cc1` registered an IFI of 2.88%.
Consider `CCN(CC)CCN(Cc1ccc(-c2ccc(C(F)(F)F)cc2)nc1)C(=O)Cn1c(SCc2ccc(F)cc2)nc(=O)c2sccc21`, for which the IFI is 6.62%.
Take `CC(C)CNCc1cccc(-c2cccc(CNc3ccc4ncccc4c3)c2)c1`: the IFI was found to be 7.91%.
`Cc1ccc(O)c(C(=O)c2cc(C(=O)Nc3ccccc3C)c(=O)n(-c3ccccc3C)c2)c1` showed an IFI of 1.4%.
For the compound `O=c1cc(NCCCNC2CCOc3c(I)cc(Cl)cc32)[nH]c2ccccc12` (stereo not given), the IFI came to 8.61%.
The figure for `COc1cc(Nc2nccc(Nc3ccc4c(C)n[nH]c4c3)n2)cc2ccccc12` is 9.03%; for `CC(=O)Nc1nc(C(=O)Nc2cccc(-c3ccc(-c4nc5ccccc5[nH]4)cc3)c2)cs1` it is 7.02%; for `OCCOCn1cnc2cnc(N[C@H]3OC[C@H](O)[C@@H](O)[C@@H]3O)nc21` it is -0%.
The figure for `CN(C)CCCOc1ccc(CCNCc2cccc(Oc3ccc(Cl)cc3)c2)cc1` is 7.97%.
The figure for `O=C(Nc1ccccc1C(F)(F)F)Nc1nn(Cc2c(F)cccc2Cl)cc1Br` is 3.48%; for `Fc1cccc(COc2ccc(-n3ccc4c(NCCCn5ccnc5)ncnc43)cc2Cl)n1` it is 5.76%.
`COc1ccc(-c2onc(C(F)(F)F)c2-c2ccc(Br)cc2)c(O)c1`: the IFI is 10%.
With `CN1CCN(CCCCNc2c3ccccc3nc3ccccc23)CC1`, the IFI worked out at 6.21%.
On to `Cn1nccc1C(=O)NCCNCc1ccc(-c2cccc(-c3nc4ccccc4[nH]3)c2)cc1`, for which the IFI stood at 4.85%.
Turning to `COc1cccc(C(=O)Nc2sc3c(c2C(N)=O)CCCC3)c1OC`, the IFI stood at 0.79%.
